Measurements from PMC10668032.
Some of the results follow. At the low end of the ranking the order means little.

target: SIX1 homeodomain (reference allele) (UniProt Q15475); experiment: universal protein binding microarray; details: Universal all-10-mer PBM (8x60K, AMADID 030236), 300 nM GST-tagged protein, Alexa Fluor 488 anti-GST; buffer, salt, pH and temperature not stated; high values mean tight binding; most listed sequences are background and not binding sites; double strand, one strand shown

Sequence | binding signal [E-score]
CGTGTTAA | 0.0352
CGATCCAG | 0.212
TGGGGACA | -0.0681
CGCGGGTC | 0.0261
CAAGCAGA | 0.0514
AGTAGGGA | -0.0324
AATCGTTG | 0.0357
CCTGAAGG | -0.121
CCGTCGCC | -0.166
CCTCGCAG | -0.0486
CTCACAAC | -0.0592
CAGATAGC | 0.171
AATAGCTC | -0.129
GGAACAGA | -0.11
CCACTATC | 0.227
CCGTCCAG | -0.00417
GACCTTGA | -0.193
TATGAGGA | 0.0339
AGAGTTAG | -0.194
CTAAACAC | -0.161
GATTCGCC | -0.0444
CACAATGC | 0.00304
ACAACGGG | -0.124
AATGAAGT | -0.238
CGTGTGGA | -0.0925

Sequence | binding signal [E-score]
CGACTCTC | -0.0633
ATTTCGCC | 0.0575
ATTATAGC | 0.176
TACAGCCA | -0.0567
GTGTCAAC | 0.287
CGACATTA | -0.0192
GTCCAAGA | -0.101
AAAGTCCA | -0.232
CCTCATAG | -0.0882
ATGGGTCA | 0.0525
AGGGGACG | 0.0918
AATCTGTC | 0.0252
CACTCAGG | -0.0211
ATGCAATC | 0.0546
CAAATTTC | -0.179
AGGACTTC | -0.106
AACTAGCC | -0.133
GAATTTGA | -0.133
ACTAGTCT | -0.189
ACTCCCGA | 0.0226
AAGTATTC | 0.0246
ACGCCGAC | -0.0352
ACGGATAA | 0.216
CGTCTATA | 0.0955
CCCTACAC | 0.0682

Sequence | binding signal [E-score]
AACTGAGT | -0.0296
AGCCTACT | 0.0136
ACACGCTA | 0.00362
ATTTGGAA | -0.0717
CACCGGCG | 0.0505
ATTACCCC | 0.177
ATCGGGAA | 0.154
CAAATCAA | -0.0232
ATTTCCAG | -0.184
GGCACAAA | -0.209
CTCTGCCA | -0.27
TCGTTTAA | -0.212
AGACCAGC | -0.229
CAGCGAGG | -0.134
CTCACGTA | 0.177
CATGCTGA | 0.00739
ACACGAAT | 0.11
GGGTCCGA | -0.0314
AATTGTGG | -0.0402
ACATAGAT | 0.0949
AAGGTGCT | -0.227
AGACTCAC | -0.256
ACGTCCAA | -0.11
ATGGGACG | -0.206
TGGGAACA | 0.0717

Sequence | binding signal [E-score]
ATTGTTAG | -0.0882
ATGAAAAT | 0.026
CAATCCGA | 0.224
CTGCACGC | -0.198
AATCTAAC | -0.131
CCGCAAGA | 0.079
ATCATCAG | 0.154
AAAATTTA | -0.19
CACCTCGG | 0.137
AAACCTAC | -0.134
CTGCTACC | -0.0583
CTAGGACC | -0.0987
ACCATTGC | -0.0913
GCCGCATA | 0.124
GGGCGCTA | -0.104
GGAACACC | 0.187
AAGCCTGT | -0.0406
AGATTGAC | 0.0324
AAAAATGA | -0.0934
ATTGGGCG | -0.0198
ATGATAGC | 0.379
ACAGTCGA | -0.201
AAGCTAGA | -0.113
AACTCGGC | -0.3
CAGGTGGG | -0.15

Sequence | binding signal [E-score]
ATTTTATA | 0.132
CCAGTCGC | -0.131
ATGGGTAA | 0.0327
AGTAGCCG | -0.0687
GGTTCCCA | -0.204
ACGCTTCC | -0.206
AAAGATCT | 0.059
ACACTATC | 0.268
AGTGCTCG | -0.211
GGTCGATA | 0.271
CGTATCAG | 0.465
CAGGACAG | -0.181
TGAAGTCA | -0.266
GAACCCTC | -0.133
ATAAAGAC | -0.0338
GACTGGGA | 0.0333
CAGGGGTA | 0.295
GCCAAGTA | -0.221
CGTGAAGC | -0.177
ACTCGCAC | -0.0596
GATGCCGC | 0.0159
ATAATGTA | 0.181
CCATGACA | 0.0931
ACCCTTGG | 0.0265
GACACTGA | 0.161

Sequence | binding signal [E-score]
GGAATTTA | -0.0752
AGTCATGA | -0.000375
ACTCAACG | -0.0521
GGATGATA | 0.443
ATGAACGG | -0.0546
AGCAACGC | -0.116
CTCCACAA | -0.089
AGTTACGA | 0.0484
GCTAGCTA | -0.0717
CGACGTGA | -0.0301
CATAGTAC | 0.0714
CCCGATCA | 0.347
ACAGTGCA | -0.129
GGCCAAAA | -0.239
CCGACATC | 0.0615
ATCTGAGC | 0.0648
CGTCACGA | -0.0648
ATAAATCC | 0.175
CTCGGCGA | 0.151
ATACTCGG | 0.316
ATCGTCTG | 0.162
CATCCGTC | 0.0183
CCCCGACG | 0.136
ATGCTCGA | -0.149
ATATAGCC | 0.25

Sequence | binding signal [E-score]
AGTTGGGA | -0.101
GCGGTCTA | -0.172
GCAGGCCC | -0.31
GGGGACCC | -0.164
ACTTTTAT | -0.199
CATCACCA | -0.146
AATCCTGA | 0.0549
CAGGACTC | -0.145
CTAGAAAC | -0.194
GACCTATC | 0.269
ATCATTGG | 0.186
CGTATGAA | 0.15
ACTGTACC | 0.11
ATCGCTTG | 0.156
GCGTACGC | -0.326
ATACTGAG | 0.286
GGCTGACC | -0.23
CGGACTCC | -0.158
CAGATAAG | 0.0588
ATTTAATC | 0.21
CGGATACC | 0.476
ACCTGTTG | -0.0405
